Source: patent US20240002501A1 (Memorial Sloan Kettering, published 2024)
Read-outs that look alike come from different tables or passages of the source.

Assays:
L1-CAM-Fc [1] = molecular target: T1, L1-CAM-Fc (UniProt P32004 20-1120, limits assumed); test: SPR (Biacore T100), L1-CAM-Fc immobilised on CM5 chip
T1 construct: also called antigen L1-CAM-Fc; not shown: Fc part
Protocol: (§1) In Vitro Binding Kinetics by Biacore T-100 Biosensor (GE Healthcare, Uppsala, Sweden). CM5 sensor chip (Research grade) and related reagents were purchased from Biacore USA (Piscataway, NJ). Antigen L1-CAM-Fc or L1-CAM-His was directly immobilized onto the CM5 sensor chip according to the manufacturer's instructions. Purified monoclonal antibodies (MoAbs) (mouse, chimeric IgG1 and IgG4, and humanized IgG1 and IgG4 versions of E71 and E72, and their IgG1n glycoforms) were diluted in HBS-EP buffer at varying concentrations (41.7˜666.7 nM) prior to analysis. Samples were injected over the sensor surface at a flow rate of 30 μl/min over 1 min. Association time was set for 1 min, dissociation time was set for from 5 min to 15 min. At the end of each cycle, the surface was regenerated using 50 mM NaOH at a flow rate of 50 μl/min over 1 min. The data were analyzed by the bivalent analyte model and default parameter setting for the rate constants using the Biacore T-100 evaluation software, and the apparent association on rate constant (kₒₙ), dissociation off rate constant (koff) and equilibrium dissociation constant (Kd=koff/kₒₙ) were calculated.
The binding of huE71-BsAb and huE72-BsAb to both target cells and effector cells was tested by FACS immunostaining. huE71-BsAb was equally efficient as parental huE71 in binding to L1-CAM(+) neuroblastoma BE(2)C, whereas the binding of huE72-BsAb to BE(2)C was half of that observed with huE71-BsAb (FIG. 38(A)). For binding to CD3(+) T cells, both huE71-BsAb and huE72-BsAb were less efficient compared to huOKT3 IgG1; around 20 fold weaker than huOKT3 (FIG. 38(B)). The reduced avidity of the light chain-anchored scFv of the BsAbs for T cells was attributable in part to the spatial constraints of this format, but is advantageous for minimizing cytokine release especially when target cells were not present.

[2] = molecular target: T2, L1-CAM on L1-CAM(+) human tumor cells (human, UniProt P32004 20-1257); test: Lindmo cell binding assay of the radiolabelled antibody on SKOV3 cells
T2 construct: whole, on cells; also called CD171; antigen on BE(2)C, SKOV3, IMR32-luciferase and other tumor cells
Protocol: FIGS. 48(A)-48(E) show the immunoreactivity of ⁸⁹Zr-radiolabeled L1-CAM antibodies of the present technology. The radioimmunoconjugates were functionally characterized for binding to antigen-expressing cells (SKOV-3) and the determination of the immunoreactive fraction via Lindmo assays (Ben Q W et al., Ann Surg Oncol 17:2213-21 (2010)). Aliquots of each radioimmunoconjugate, 50 μL of 1 μCi/mL stock were added to tubes containing 5.0×10⁵-5.0×10⁶ cells/mL (in triplicate) in 500 μL PBS, 1% BSA (pH 7.4 to a final volume of 550 μL). Cell bound activity was counted and data graphed on double-reciprocal plot. Immunoreactive fractions are presented as mean percentages of triplicate samples±SEM.
Immunoreactivity. The immunoreactive fraction of the ⁸⁹Zr-DFO-antibodies was determined using a Lindmo cell binding assay (Ben Q W et al., Ann Surg Oncol 17:2213-21 (2010)). To this end, SKOV3 cells were suspended in microcentrifuge tubes at concentrations ranging from 5.0×10⁵-5.0×10⁶ cells/mL in 500 μL PBS, 1% BSA (pH 7.4). Aliquots of ⁸⁹Zr-DFO-antibody (50 μL of 1 μCi/mL stock were added to each tube to a final volume of 500 μL. The samples were incubated on a thermomixer for 60 min at 37° C. The treated cells were then pelleted via centrifugation (1400 RPM for 4 min), aspirated supernatant, and washed three times with cold PBS before removing the supernatant and counting the cell-associated radioactivity. The activity data were background-corrected and compared with the total number of counts in appropriate control samples. Immunoreactive fractions were determined by linear regression analysis of a plot of (total/bound) activity against (1/[normalized cell concentration]).
To determine the extent to which these antibodies were able to bind the target post-radiolabeling, immunoreactivity assays were performed. Briefly, the ⁸⁹Zr-labeled antibodies were incubated with increasing concentrations of target positive ovarian cancer cells (SKOV3) and, following washes, the cell bound activity was counted and used to calculate the immunoreactive fraction.

L1-CAM-Fc [3] = molecular target: T1, L1-CAM-Fc; test: SPR (Biacore T100), L1-CAM-Fc immobilised on CM5 chip; remark: listed apart in the source
T1 sequence (P32004 20-1120 limits assumed): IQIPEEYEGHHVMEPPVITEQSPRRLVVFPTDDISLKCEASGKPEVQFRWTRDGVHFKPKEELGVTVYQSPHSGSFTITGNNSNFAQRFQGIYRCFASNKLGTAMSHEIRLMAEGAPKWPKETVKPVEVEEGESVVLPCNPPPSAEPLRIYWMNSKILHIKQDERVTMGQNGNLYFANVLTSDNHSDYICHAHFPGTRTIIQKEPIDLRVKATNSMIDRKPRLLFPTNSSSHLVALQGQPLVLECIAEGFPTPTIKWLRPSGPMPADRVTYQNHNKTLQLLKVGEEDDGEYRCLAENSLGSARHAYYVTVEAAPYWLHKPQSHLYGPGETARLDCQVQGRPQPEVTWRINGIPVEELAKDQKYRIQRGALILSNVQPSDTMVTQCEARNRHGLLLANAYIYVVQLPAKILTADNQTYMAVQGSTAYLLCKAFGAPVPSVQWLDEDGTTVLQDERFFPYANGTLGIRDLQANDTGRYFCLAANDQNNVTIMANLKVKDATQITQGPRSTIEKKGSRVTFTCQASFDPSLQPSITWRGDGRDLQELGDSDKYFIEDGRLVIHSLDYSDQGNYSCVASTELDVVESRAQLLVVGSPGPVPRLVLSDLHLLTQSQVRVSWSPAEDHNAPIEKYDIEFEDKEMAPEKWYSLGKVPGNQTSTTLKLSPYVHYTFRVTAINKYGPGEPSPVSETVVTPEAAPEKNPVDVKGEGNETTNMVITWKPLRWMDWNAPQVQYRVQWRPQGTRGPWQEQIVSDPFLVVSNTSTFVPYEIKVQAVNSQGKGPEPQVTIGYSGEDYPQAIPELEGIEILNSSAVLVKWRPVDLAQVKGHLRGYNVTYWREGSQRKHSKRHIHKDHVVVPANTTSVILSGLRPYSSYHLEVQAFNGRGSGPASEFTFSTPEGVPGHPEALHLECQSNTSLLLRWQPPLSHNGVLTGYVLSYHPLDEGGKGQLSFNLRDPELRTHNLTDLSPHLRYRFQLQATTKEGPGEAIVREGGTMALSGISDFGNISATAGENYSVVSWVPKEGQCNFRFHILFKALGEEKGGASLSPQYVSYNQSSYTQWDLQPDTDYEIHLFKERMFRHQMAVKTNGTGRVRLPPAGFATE
Protocol: as §1

Binder	immunoreactive fraction [2] [%]	Kd (L1-CAM-Fc [3]) [nM]	further results
huE71-IgG1 (huE71 H1/L1) (antibody, Wild-type human IgG1, made in DG44 or CHO-S cells; also called parental huE71; humanized E71 IgG1) heavy: QVQLVQPGDELVKPGASVKLSCKASGYTFTSYWMQWVKQRPGQGLEWIGEINPSNGRTNYNEMFKSKAVLSVDKSVSTAYMQLSSLTAEDTAVYYCALYDGYYAMDYWGQGTLVTVSS[human IgG1 constant region not shown] light: DIVMTQSPSSLAVSVGERVTMSCKSSQSLLYSSNQKNYLAWYQQKPGQSPKLLIYWASTRESGVPDRFSGSGSGTDFTLTISSVKAEDVALYYCQQYHSYPFTFGQGTKLEIKRTVAAPSVFIFPPSDEQLKSGTASVVCLLNNFYPREAKVQWKVDNALQSGNSQESVTEQDSKDSTYSLSSTLTLSKADYEKHKVYACEVTHQGLSSPVTKSFNRGEC	–	–	Kd (L1-CAM-Fc [1]): 4.62 nM; koff (L1-CAM-Fc [1]): 0.000325 s⁻¹; kon (L1-CAM-Fc [1]): 70300 M⁻¹ s⁻¹
89Zr-HuE71-4 WT (antibody, human IgG4, kappa, p-SCN-Bn-DFO chelator on random lysines of the antibody, 89Zr-labelled; p-SCN-Bn-DFO chelator on random lysines of the antibody, 89Zr-labelled, average 1.30 chelates per antibody, also called huE71-IgG4 (radiolabelled)) heavy: QVQLVQPGDELVKPGASVKLSCKASGYTFTSYWMQWVKQRPGQGLEWIGEINPSNGRTNYNEMFKSKAVLSVDKSVSTAYMQLSSLTAEDTAVYYCALYDGYYAMDYWGQGTLVTVSSASTKGPSVFPLAPCSRSTSESTAALGCLVKDYFPEPVTVSWNSGALTSGVHTFPAVLQSSGLYSLSSVVTVPSSSLGTKTYTCNVDHKPSNTKVDKRV[human IgG4 Fc not shown] light: DIVMTQSPSSLAVSVGERVTMSCKSSQSLLYSSNQKNYLAWYQQKPGQSPKLLIYWASTRESGVPDRFSGSGSGTDFTLTISSVKAEDVALYYCQQYHSYPFTFGQGTKLEIKRTVAAPSVFIFPPSDEQLKSGTASVVCLLNNFYPREAKVQWKVDNALQSGNSQESVTEQDSKDSTYSLSSTLTLSKADYEKHKVYACEVTHQGLSSPVTKSFNRGEC	86.7	–	–
89Zr-HuE71-1 WT (antibody, human IgG1, kappa, p-SCN-Bn-DFO chelator on random lysines of the antibody, 89Zr-labelled; p-SCN-Bn-DFO chelator on random lysines of the antibody, 89Zr-labelled, average 1.41 chelates per antibody, also called HuE71-1 WT (radiolabelled)) heavy: QVQLVQPGDELVKPGASVKLSCKASGYTFTSYWMQWVKQRPGQGLEWIGEINPSNGRTNYNEMFKSKAVLSVDKSVSTAYMQLSSLTAEDTAVYYCALYDGYYAMDYWGQGTLVTVSS[human IgG1 constant region not shown] light: DIVMTQSPSSLAVSVGERVTMSCKSSQSLLYSSNQKNYLAWYQQKPGQSPKLLIYWASTRESGVPDRFSGSGSGTDFTLTISSVKAEDVALYYCQQYHSYPFTFGQGTKLEIKRTVAAPSVFIFPPSDEQLKSGTASVVCLLNNFYPREAKVQWKVDNALQSGNSQESVTEQDSKDSTYSLSSTLTLSKADYEKHKVYACEVTHQGLSSPVTKSFNRGEC	93.1	–	–
89Zr-HuE71-1 MAGE (antibody, human IgG1, kappa, p-SCN-Bn-DFO chelator on random lysines of the antibody, 89Zr-labelled; glycans lacking alpha-1,6-fucose (GnT1-deficient CHO); p-SCN-Bn-DFO chelator on random lysines of the antibody, 89Zr-labelled, average 2.38 chelates per antibody, also called 89Zr-huE71-IgG1n; 89Zr-HuE71-IgGn (MAGE)) heavy: QVQLVQPGDELVKPGASVKLSCKASGYTFTSYWMQWVKQRPGQGLEWIGEINPSNGRTNYNEMFKSKAVLSVDKSVSTAYMQLSSLTAEDTAVYYCALYDGYYAMDYWGQGTLVTVSS[human IgG1 constant region not shown] light: DIVMTQSPSSLAVSVGERVTMSCKSSQSLLYSSNQKNYLAWYQQKPGQSPKLLIYWASTRESGVPDRFSGSGSGTDFTLTISSVKAEDVALYYCQQYHSYPFTFGQGTKLEIKRTVAAPSVFIFPPSDEQLKSGTASVVCLLNNFYPREAKVQWKVDNALQSGNSQESVTEQDSKDSTYSLSSTLTLSKADYEKHKVYACEVTHQGLSSPVTKSFNRGEC	89.5	–	–
chE71-IgG4 (antibody) heavy: QVQLQQPGDELVKPGASVKLSCKASGYTFTSYWMQWVKQRPGQGLEWIGEINPSNGRTNYNEMFKSKATLTVDKSSSTAYMQLSSLTSEDSAVYYCALYDGYYAMDYWGQGTSVTVSSASTKGPSVFPLAPCSRSTSESTAALGCLVKDYFPEPVTVSWNSGALTSGVHTFPAVLQSSGLYSLSSVVTVPSSSLGTKTYTCNVDHKPSNTKVDKRV[human IgG4 Fc not shown] light: DIVMSQSPSSLAVSVGEKVTMSCKSSQSLLYSSNQKNYLAWYQQKPGQSPKLLIYWASTRESGVPDRFTGSGSGTDFTLTISSVKAEDLALYYCQQYHSYPFTFGSGTKLEIKRTVAAPSVFIFPPSDEQLKSGTASVVCLLNNFYPREAKVQWKVDNALQSGNSQESVTEQDSKDSTYSLSSTLTLSKADYEKHKVYACEVTHQGLSSPVTKSFNRGEC	–	15.2	–
huE71-IgG1n (antibody, variant Fc glycosylation from GnT1-deficient CHO cells (glycans lacking alpha-1,6-fucose), also called huE71-IgGn; HuE71-1 MAGE (unlabelled)) heavy: QVQLVQPGDELVKPGASVKLSCKASGYTFTSYWMQWVKQRPGQGLEWIGEINPSNGRTNYNEMFKSKAVLSVDKSVSTAYMQLSSLTAEDTAVYYCALYDGYYAMDYWGQGTLVTVSS[human IgG1 constant region not shown] light: DIVMTQSPSSLAVSVGERVTMSCKSSQSLLYSSNQKNYLAWYQQKPGQSPKLLIYWASTRESGVPDRFSGSGSGTDFTLTISSVKAEDVALYYCQQYHSYPFTFGQGTKLEIKRTVAAPSVFIFPPSDEQLKSGTASVVCLLNNFYPREAKVQWKVDNALQSGNSQESVTEQDSKDSTYSLSSTLTLSKADYEKHKVYACEVTHQGLSSPVTKSFNRGEC	–	38.8	–

Second part, led by results:

immunoreactive fraction [2] [%]	Kd (L1-CAM-Fc [3]) [nM]	Binder	further results
–	14.9	chE71-IgG1 (antibody, also called chimeric E71) heavy: QVQLQQPGDELVKPGASVKLSCKASGYTFTSYWMQWVKQRPGQGLEWIGEINPSNGRTNYNEMFKSKATLTVDKSSSTAYMQLSSLTSEDSAVYYCALYDGYYAMDYWGQGTSVTVSS[human IgG1 constant region not shown] light: DIVMSQSPSSLAVSVGEKVTMSCKSSQSLLYSSNQKNYLAWYQQKPGQSPKLLIYWASTRESGVPDRFTGSGSGTDFTLTISSVKAEDLALYYCQQYHSYPFTFGSGTKLEIKRTVAAPSVFIFPPSDEQLKSGTASVVCLLNNFYPREAKVQWKVDNALQSGNSQESVTEQDSKDSTYSLSSTLTLSKADYEKHKVYACEVTHQGLSSPVTKSFNRGEC	–
–	15.2	huE71-IgG4 (antibody, unlabelled form of m13; also called HuE71-4 WT (unlabelled)) heavy: QVQLVQPGDELVKPGASVKLSCKASGYTFTSYWMQWVKQRPGQGLEWIGEINPSNGRTNYNEMFKSKAVLSVDKSVSTAYMQLSSLTAEDTAVYYCALYDGYYAMDYWGQGTLVTVSSASTKGPSVFPLAPCSRSTSESTAALGCLVKDYFPEPVTVSWNSGALTSGVHTFPAVLQSSGLYSLSSVVTVPSSSLGTKTYTCNVDHKPSNTKVDKRV[human IgG4 Fc not shown] light: DIVMTQSPSSLAVSVGERVTMSCKSSQSLLYSSNQKNYLAWYQQKPGQSPKLLIYWASTRESGVPDRFSGSGSGTDFTLTISSVKAEDVALYYCQQYHSYPFTFGQGTKLEIKRTVAAPSVFIFPPSDEQLKSGTASVVCLLNNFYPREAKVQWKVDNALQSGNSQESVTEQDSKDSTYSLSSTLTLSKADYEKHKVYACEVTHQGLSSPVTKSFNRGEC	–
85.8	–	89Zr-HuE71-1 Aglyco (antibody, p-SCN-Bn-DFO chelator on random lysines of the antibody, 89Zr-labelled; Aglycosylated through N297A. p-SCN-Bn-DFO chelator on random lysines, average 1.07 per antibody, labelled with 89Zr; the positions are not defined., also called HuE71-1 Aglyco (radiolabelled)) heavy: QVQLVQPGDELVKPGASVKLSCKASGYTFTSYWMQWVKQRPGQGLEWIGEINPSNGRTNYNEMFKSKAVLSVDKSVSTAYMQLSSLTAEDTAVYYCALYDGYYAMDYWGQGTLVTVSS[human IgG1 constant region with changes not shown] light: DIVMTQSPSSLAVSVGERVTMSCKSSQSLLYSSNQKNYLAWYQQKPGQSPKLLIYWASTRESGVPDRFSGSGSGTDFTLTISSVKAEDVALYYCQQYHSYPFTFGQGTKLEIKRTVAAPSVFIFPPSDEQLKSGTASVVCLLNNFYPREAKVQWKVDNALQSGNSQESVTEQDSKDSTYSLSSTLTLSKADYEKHKVYACEVTHQGLSSPVTKSFNRGEC	–
